# Measurements as given in publication PMC7589982.
# Amino acid sequences for entries named in this document (tags omitted). A change or cut given only in a name is not applied to a line headed by its entry. Residues count along the entry.
# UniProt P03126: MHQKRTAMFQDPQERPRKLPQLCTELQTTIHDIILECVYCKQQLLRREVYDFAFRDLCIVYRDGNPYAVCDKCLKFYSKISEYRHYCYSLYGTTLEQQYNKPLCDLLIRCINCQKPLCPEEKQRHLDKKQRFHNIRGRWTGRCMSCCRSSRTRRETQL
# UniProt P17948: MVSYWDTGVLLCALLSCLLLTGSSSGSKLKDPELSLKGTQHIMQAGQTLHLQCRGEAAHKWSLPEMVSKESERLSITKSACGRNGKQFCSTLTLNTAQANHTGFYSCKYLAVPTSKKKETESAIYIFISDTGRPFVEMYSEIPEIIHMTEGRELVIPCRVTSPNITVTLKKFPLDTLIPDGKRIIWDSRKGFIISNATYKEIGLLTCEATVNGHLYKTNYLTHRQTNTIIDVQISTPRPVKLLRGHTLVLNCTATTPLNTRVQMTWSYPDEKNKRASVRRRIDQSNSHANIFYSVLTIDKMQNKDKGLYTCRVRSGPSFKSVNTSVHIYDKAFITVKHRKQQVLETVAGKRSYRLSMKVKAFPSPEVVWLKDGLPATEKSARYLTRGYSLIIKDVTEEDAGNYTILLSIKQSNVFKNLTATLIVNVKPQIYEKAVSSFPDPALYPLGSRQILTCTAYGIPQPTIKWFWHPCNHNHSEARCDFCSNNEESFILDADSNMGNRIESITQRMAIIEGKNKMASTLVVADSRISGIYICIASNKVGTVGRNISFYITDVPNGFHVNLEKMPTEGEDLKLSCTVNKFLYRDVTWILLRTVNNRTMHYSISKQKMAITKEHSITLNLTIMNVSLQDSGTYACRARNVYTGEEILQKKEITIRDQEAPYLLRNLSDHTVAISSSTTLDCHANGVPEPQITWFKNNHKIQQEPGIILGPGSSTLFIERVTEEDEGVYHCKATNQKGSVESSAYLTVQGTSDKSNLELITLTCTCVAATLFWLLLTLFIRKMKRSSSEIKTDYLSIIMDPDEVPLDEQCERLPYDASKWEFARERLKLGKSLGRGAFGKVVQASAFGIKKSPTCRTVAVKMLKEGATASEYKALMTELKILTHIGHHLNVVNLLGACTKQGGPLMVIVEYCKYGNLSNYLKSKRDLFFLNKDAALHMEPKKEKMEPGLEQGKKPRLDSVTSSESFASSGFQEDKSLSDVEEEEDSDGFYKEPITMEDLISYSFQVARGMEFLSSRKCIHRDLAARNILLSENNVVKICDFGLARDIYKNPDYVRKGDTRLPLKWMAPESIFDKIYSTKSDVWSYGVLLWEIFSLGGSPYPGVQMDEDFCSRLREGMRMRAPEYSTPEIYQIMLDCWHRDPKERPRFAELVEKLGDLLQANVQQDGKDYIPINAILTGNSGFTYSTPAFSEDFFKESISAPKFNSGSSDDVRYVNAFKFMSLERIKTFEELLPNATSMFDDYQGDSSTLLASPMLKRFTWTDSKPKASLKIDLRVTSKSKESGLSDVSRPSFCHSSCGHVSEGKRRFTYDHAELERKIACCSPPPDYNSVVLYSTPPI
# UniProt P35968, residues 20-1356: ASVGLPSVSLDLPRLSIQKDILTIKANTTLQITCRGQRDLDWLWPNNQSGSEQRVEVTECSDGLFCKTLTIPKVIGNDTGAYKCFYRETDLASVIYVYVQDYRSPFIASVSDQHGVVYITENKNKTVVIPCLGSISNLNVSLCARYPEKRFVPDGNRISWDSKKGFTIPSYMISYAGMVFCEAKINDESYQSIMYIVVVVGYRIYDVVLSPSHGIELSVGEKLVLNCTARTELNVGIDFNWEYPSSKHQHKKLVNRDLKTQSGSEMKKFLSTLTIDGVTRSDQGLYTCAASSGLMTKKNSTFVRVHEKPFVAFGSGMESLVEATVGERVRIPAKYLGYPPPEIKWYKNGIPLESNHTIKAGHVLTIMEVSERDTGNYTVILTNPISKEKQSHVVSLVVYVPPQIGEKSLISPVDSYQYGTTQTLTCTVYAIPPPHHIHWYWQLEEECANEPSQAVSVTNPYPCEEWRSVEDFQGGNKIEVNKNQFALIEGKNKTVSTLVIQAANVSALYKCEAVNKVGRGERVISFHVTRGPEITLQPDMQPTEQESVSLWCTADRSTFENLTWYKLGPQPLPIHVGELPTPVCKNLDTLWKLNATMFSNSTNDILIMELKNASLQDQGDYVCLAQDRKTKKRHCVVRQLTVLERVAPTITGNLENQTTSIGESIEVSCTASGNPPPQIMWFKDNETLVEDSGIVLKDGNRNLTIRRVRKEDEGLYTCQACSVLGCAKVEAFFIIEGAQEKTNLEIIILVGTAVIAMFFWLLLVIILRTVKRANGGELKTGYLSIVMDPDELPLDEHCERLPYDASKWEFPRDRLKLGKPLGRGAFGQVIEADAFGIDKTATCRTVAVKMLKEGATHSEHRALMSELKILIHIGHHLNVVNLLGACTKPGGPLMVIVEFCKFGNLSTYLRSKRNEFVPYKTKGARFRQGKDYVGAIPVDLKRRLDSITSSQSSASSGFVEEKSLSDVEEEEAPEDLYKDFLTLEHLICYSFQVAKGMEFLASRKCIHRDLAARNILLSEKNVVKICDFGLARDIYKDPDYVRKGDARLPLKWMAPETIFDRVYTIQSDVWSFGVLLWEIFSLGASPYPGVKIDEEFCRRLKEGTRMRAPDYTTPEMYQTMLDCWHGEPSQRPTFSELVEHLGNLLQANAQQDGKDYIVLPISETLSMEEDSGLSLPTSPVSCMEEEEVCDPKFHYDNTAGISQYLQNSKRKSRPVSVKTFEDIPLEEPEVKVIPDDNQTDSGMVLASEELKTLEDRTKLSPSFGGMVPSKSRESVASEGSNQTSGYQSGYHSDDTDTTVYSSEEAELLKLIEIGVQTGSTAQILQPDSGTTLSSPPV
# Read-outs that look alike come from different tables or passages of the source. These are yes or no findings as the source states them, for the method shown. For some of these results: In cells and extracts the contact can be indirect. Some results given as binding are weak or reduced against the parent protein; the word gives no strength.
# B1: IRF-1 (pcDNA3.1/IRF-1) (protein, UniProt P10914 1-325)
# chain: MPITRMRMRPWLEMQINSNQIPGLIWINKEEMIFQIPWKHAAKHGWDINKDACLFRSWAIHTGRYKAGEKEPDPKTWKANFRCAMNSLPDIEEVKDQSRNKGSSAVRVYRMLPPLTKNQRKERKSKSSRDAKSKAKRKSCGDSSPDTFSDGLSSSTLPDDHSSYTVPGYMQDLEVEQALTPALSPCAVSSTLPDWHIPVEVVPDSTSDLYNFQVSPMPSTSEATTDEDEEGKLPEDIMKLLEQSEWQPTNVDGKGYLLNEPGVQPTSVYGDFSCKEEPEIDSPGGDIGLSLQRVFTDLKNMDATWLDSLLTPVRLPSIQAIPCAP
# B2: endogenous IRF-1 (protein, UniProt P10914 1-325)
# chain: B1 chain
# Assays:
# [1] = target: endogenous HPV16 E6 (human papillomavirus 16) (UniProt P03126); assay: co-IP; endogenous proteins in whole cell lysates of HEK293T cells; IP with an antibody as indicated in the figure, rabbit IgG as IP-negative control; immunoblot
# [2] = target: Flag-HPV16 E6 (pcDNA3.1/Flag-HPV16 E6) (human papillomavirus 16) (UniProt P03126); assay: co-IP; co-transfected cells; total cell extracts incubated with anti-Flag antibody, precipitated with protein A-agarose; immunoblot with anti-HPV16 E6, anti-VEGFR-1, anti-VEGFR-2 or anti-IRF-1
# [3] = target: HPV16 E6 oncoprotein, full-length, LexA bait (pGilda/LexA) (human papillomavirus 16) (UniProt P03126); assay: two-hybrid; full-length HPV16 E6 in pGilda/LexA as bait; growth on medium lacking leucine, blue colonies, beta-galactosidase activity (unit) with ONPG
# [4] = target: Flag-HPV16 E6 (pcDNA3.1/Flag-HPV16 E6) (human papillomavirus 16) (UniProt P03126); assay: co-IP; co-transfected cells; total cell extracts incubated with anti-Flag antibody, precipitated with protein A-agarose; immunoblot with anti-HPV16 E6, anti-VEGFR-1, anti-VEGFR-2 or anti-IRF-1; remark: listed apart in the source
# [5] = target: endogenous HPV16 E6 (human papillomavirus 16) (UniProt P03126); assay: co-IP; endogenous proteins in whole cell lysates of HEK293T cells; IP with an antibody as indicated in the figure, rabbit IgG as IP-negative control; immunoblot; remark: listed apart in the source
molecule,measurement,setting,value
endogenous VEGFR-1 (from UniProt P17948 27-1338) (receptor),binding,[1],no binding
VEGFR-1 (pcDNA3.1/VEGFR-1) (from UniProt P17948 27-1338) (receptor),binding,[2],no binding
VEGFR-2 (pcDNA3.1/VEGFR-2) (from UniProt P35968 20-1356) (receptor),binding,[2],binds
"VEGFR-1, yeast two-hybrid partner (from UniProt P17948 1-1338) (receptor)",binding,[3],no binding
endogenous VEGFR-2 (from UniProt P35968 20-1356) (receptor),binding,[1],binds
B1,binding,[4],binds
B2,binding,[5],binds
